Screen size: about 150,000 compounds; about 540 (0.36%) showed an effect of 50% or more. Some of the results follow.
The compounds below were run on Plasmodium falciparum (assay: Primary screen in NF54 nanoGlo assay, in single point, at 2uM, 72h; a lower Z score goes with more inhibition). Conditions: timepoint 72 hour.
Format: functional, Erythrocyte
In the case of O[C@]1(CN2CCCC2)COCCN(c2ncccc2C(F)(F)F)C1, the “% Inhibition” value is reported as -11% and the Z score is reported as 1.36. With COc1ccccc1OCCC(=O)N(C)C1C(C)CN(Cc2ccccc2)CC1C (stereo not given) the “% Inhibition” value was -6% and the Z score was 0.57. In the case of O=C(Cc1ccc(F)cc1)Nc1cnc(N2CCCCCC2)nc1, the “% Inhibition” value is reported as -20% and the Z score is reported as 1.75. With CN(C[C@@H]1CCCN(C(=O)Cc2ccncc2)C1)C(=O)Cc1ccncc1 the “% Inhibition” value was -8% and the Z score was 0.94. For O=C(CN1CCOC(c2cccs2)C1)NCC1CCCO1 (stereo not given), the “% Inhibition” value was -3% and the Z score was 0.45. CCC(CC)(CC)NC(=O)Cc1sc(CS(C)(=O)=O)nc1C was tested, and the “% Inhibition” value was 0% and the Z score was -0.01. For Cc1cc(NCC(C)(C)CO)nc(N(C)C)n1, the “% Inhibition” value was -12% and the Z score was 2.18. For O=S(=O)(c1cccc(F)c1)N1CCN(Cc2nc3cccnc3[nH]2)CC1, the “% Inhibition” value was -1% and the Z score was 0.05. For Cc1cn2nc(N[C@H]3CCN(c4nccs4)C3)ccc2n1, the “% Inhibition” value was -10% and the Z score was 1.75. In the case of O=C(Nc1ccc(Cl)cn1)c1cc(-c2ccccc2)on1, the “% Inhibition” value is reported as 17% and the Z score is reported as -1.95. For O=C(N[C@@H]1COCC[C@@H]1OCc1cscn1)c1cc(Cl)c[nH]c1=O, the “% Inhibition” value was -7% and the Z score was 1.33. With Cc1nc(C(C)C)sc1CNC(=O)c1cccc(-n2cnnc2)n1 the “% Inhibition” value was -3% and the Z score was 0.52. In the case of COc1cnc(C(=O)Nc2nnc(C3CC3)s2)cc1O, the “% Inhibition” value is reported as -1% and the Z score is reported as 0.12. With O=C(CCN1CCN(Cc2ccccc2)CC1)Nc1ccc2c(c1)OCO2 the “% Inhibition” value was -13% and the Z score was 2.24. In the case of CC(Oc1ccccc1)C(=O)N1CCC(c2ccc3c(c2)OCO3)C1 (stereo not given), the “% Inhibition” value is reported as 3% and the Z score is reported as -0.36. O=C(Cn1cc(C(F)(F)F)ccc1=O)Nc1ccccn1 was tested, and the “% Inhibition” value was -4% and the Z score was 0.53. COc1ccc(NC(=O)c2cn3c(n2)CCCC3)cc1OC was tested, and the “% Inhibition” value was 3% and the Z score was -0.43. With COc1cc2c(cc1CNCc1n[nH]c(=O)[nH]1)OCO2 the “% Inhibition” value was 6% and the Z score was -0.93. In the case of COc1ccc(-c2c(C(=O)Nc3cccc(C)c3C)nn3c(C)cc(=O)[nH]c23)cc1, the “% Inhibition” value is reported as -16% and the Z score is reported as 1.9. In the case of Cc1cccc(C(=O)N2CC[C@H]3C(=O)NCCCCCCN(Cc4ccncc4)[C@@H]3C2)c1, the “% Inhibition” value is reported as -13% and the Z score is reported as 1.71. For Cc1cc(C)nc(O[C@H]2CC[C@H](NC(=O)c3ccc[nH]c3=O)CC2)n1, the “% Inhibition” value was -10% and the Z score was 1.1. In the case of Cc1cc(NC(=O)N2CC[C@H](CN3CCCCC3)C2)ccc1F, the “% Inhibition” value is reported as -5% and the Z score is reported as 0.63. CC(C(=O)NCC(c1cccnc1)N(C)C)c1ccc(Cl)s1 (stereo not given) was tested, and the “% Inhibition” value was -2% and the Z score was 0.28. FC(F)(F)c1ccc(CC2CNC2)cc1 was tested, and the “% Inhibition” value was 5% and the Z score was -0.72. For O=C(NC[C@H]1OCCc2ccccc21)c1ccco1, the “% Inhibition” value was -2% and the Z score was 0.23. For Cc1nnc([C@@H]2CCCN2C(=O)CCc2ccccc2)[nH]1, the “% Inhibition” value was -11% and the Z score was 1.33. For COC(=O)C(C)(C)CNC(=O)NC1CCOC(C(C)C)C1 (stereo not given), the “% Inhibition” value was -15% and the Z score was 2.44. For CC(C)(C)Cc1cc(NC(=O)C2CC3CCC2O3)[nH]n1 (stereo not given), the “% Inhibition” value was 33% and the Z score was -3.72. For CCc1ccc(-n2c(CN3CCN(C(=O)NC(C)C)CC3)nc3cccnc32)cc1, the “% Inhibition” value was -2% and the Z score was 0.35. For COc1cccc(C(=O)N2C(C(=O)NC(C)c3ccccc3)COC23CCN(C(=O)c2ccccc2C)CC3)c1 (stereo not given), the “% Inhibition” value was -2% and the Z score was 0.29. With O=C(c1cn[nH]c1)N1CCC(n2cc(-c3cc(F)cc(F)c3)nn2)CC1 the “% Inhibition” value was -1% and the Z score was 0.11. With Cc1nc([C@@H]2CCCN2C(=O)C2CCCCC2)n(CCc2cnc[nH]2)n1 the “% Inhibition” value was -12% and the Z score was 2.28. O=C1CC[C@H](CCNS(=O)(=O)c2ccccc2)CCN1CC1CC1 was tested, and the “% Inhibition” value was 29% and the Z score was -3.85. With O=C(c1csc(S(=O)(=O)NCc2ccccc2)c1)N1CCCC1 the “% Inhibition” value was -8% and the Z score was 0.99. With C[C@@H](CCO)CNC(=O)CC1(C)CCCCC1 the “% Inhibition” value was -12% and the Z score was 1.61. For Cn1cncc1CNc1ccc(-c2ccccc2)cn1, the “% Inhibition” value was -3% and the Z score was 0.28. For CN(Cc1ccncc1)Cc1cn(C)nc1C(C)(C)C, the “% Inhibition” value was -2% and the Z score was 0.22. For COc1c(C)cc(C(=O)[C@H]2CCCN(Cc3ccc4cc(NC(C)=O)ccc4n3)C2)cc1C, the “% Inhibition” value was 7% and the Z score was -1.04. In the case of CCC(C)(C)CNC(=O)Nc1ncn(C(C)(C)C)n1, the “% Inhibition” value is reported as -9% and the Z score is reported as 1.01. In the case of NC(=O)Cn1cc(-c2ccccc2-c2ccccc2)cn1, the “% Inhibition” value is reported as 8% and the Z score is reported as -1.46. In the case of CCCc1nc(NC(=O)N2CC[S@+]([O-])C(C)(C)C2)sc1CC, the “% Inhibition” value is reported as -2% and the Z score is reported as 0.18. For Cn1cnc2c(c1=O)CCN(Cc1nnc3n1CCCCC3)C2, the “% Inhibition” value was -3% and the Z score was 0.63. CCCCC12CN(S(=O)(=O)c3ccccc3)CC(C)(CN(S(=O)(=O)c3ccccc3)C1)C2=O was tested, and the “% Inhibition” value was 39% and the Z score was -4.99. With COc1ccccc1N1CCN(c2ncccc2CNCc2cnc(C)n2C)CC1 the “% Inhibition” value was 1% and the Z score was -0.12. With CCS(=O)(=O)N(CC(=O)N(Cc1ccc(C)cc1)C1CCN(C(=O)c2ccc(C)cc2)CC1)CC(C)C the “% Inhibition” value was 2% and the Z score was -0.37. In the case of Cc1c(CCC(=O)NCc2ccn3ccnc3c2)cnn1C, the “% Inhibition” value is reported as -21% and the Z score is reported as 3.5. COc1cnc(NC(=O)NCCc2ccnn2C)cn1 was tested, and the “% Inhibition” value was 1% and the Z score was -0.13. Cc1ccc(-c2noc([C@@H]3CN(C)C(=O)N3)n2)cc1 was tested, and the “% Inhibition” value was -4% and the Z score was 0.7. For O=C1CC[C@@H]2CN(c3nccc4ccccc34)CC[C@@H]2N1CCCCO, the “% Inhibition” value was 6% and the Z score was -0.85. For Cc1ccc(N(C)C(C)C)c(C(=O)N2CCS(=O)(=O)C[C@@H]2C)c1, the “% Inhibition” value was -2% and the Z score was 0.15. With CC[C@@H](C(=O)NCCc1ccccn1)n1c(Cc2ccccc2F)nc2cc(Cl)c(Cl)cc21 the “% Inhibition” value was 0% and the Z score was 0.01. With COc1ccc(CN(C(=O)NCc2ccco2)C2CCCC2)c(OC)c1 the “% Inhibition” value was 13% and the Z score was -2.51. For COc1ccc(CCNC(=O)c2c(O)c3cccc4c3n(c2=O)CC4)cc1, the “% Inhibition” value was -12% and the Z score was 1.08. In the case of O=S(=O)(c1cccnc1)N1CCN(Cc2noc(C3CC3)n2)CC1, the “% Inhibition” value is reported as -5% and the Z score is reported as 0.59. For CC(=O)N(c1nc(C2NC(=O)[C@@H]3[C@@H](C)OCCN23)cs1)C1CC1 (stereo not given in full), the “% Inhibition” value was 20% and the Z score was -2.54. For CCC(C)(CC)NC(=O)[C@H]1C[C@H](OC)CN1S(C)(=O)=O, the “% Inhibition” value was -2% and the Z score was 0.3. In the case of C[C@H](Nc1nnc(-c2cccc(S(C)(=O)=O)c2)[nH]1)C1CC1, the “% Inhibition” value is reported as -7% and the Z score is reported as 0.8. Cc1csc([C@@H](C#N)C(=O)c2ccc3nc(C)ccc3c2)n1 was tested, and the “% Inhibition” value was -13% and the Z score was 1.19. For CC1CC(C)(C)CC(CO)(NCC(=O)NC(C)C)C1 (stereo not given), the “% Inhibition” value was -17% and the Z score was 2.32. Cc1nn(-c2ccccc2)c2nc(N3CCN(C(=O)c4cccc(F)c4)CC3)sc12 was tested, and the “% Inhibition” value was -9% and the Z score was 1.03. For Cc1nn(C)c(C)c1C(=O)NS(=O)(=O)N1CCc2ccccc21, the “% Inhibition” value was -3% and the Z score was 0.39. In the case of Cc1ccc(CCCC(=O)N(C2CC2)[C@@H](C)CS(C)(=O)=O)cc1, the “% Inhibition” value is reported as 2% and the Z score is reported as -0.18. In the case of CCN(CC)C(=O)CCC(=O)NCC(OC)(OC)c1ccccn1, the “% Inhibition” value is reported as 5% and the Z score is reported as -0.86. For CCOc1ccc(S(=O)(=O)NC2CCN3CCCCC23)cc1 (stereo not given), the “% Inhibition” value was -2% and the Z score was 0.38. CCOc1nccc(C)c1C(=O)N1CC[C@@H](Oc2ccccc2)C1 was tested, and the “% Inhibition” value was -10% and the Z score was 1.32. With CCC(CC)C1CC(NC(=O)c2cccc(C3CCOC3)c2)CCO1 (stereo not given) the “% Inhibition” value was 4% and the Z score was -0.81. In the case of O=C(CCS(=O)(=O)C1CCCC1)N1CCC[C@H]1c1ccc(Cl)c(Cl)c1, the “% Inhibition” value is reported as 2% and the Z score is reported as -0.3. In the case of CCC[C@H](N)C(=O)N(C)Cc1ccco1, the “% Inhibition” value is reported as 6% and the Z score is reported as -0.59. With Cc1cccc(S(=O)(=O)c2cnc(N(C)Cc3ccccc3)nc2N)c1 the “% Inhibition” value was 1% and the Z score was -0.22. With CN1CCC(NCCOCc2ccc(Cl)cc2Cl)CC1 the “% Inhibition” value was 0% and the Z score was 0. In the case of O=C(NC1CCCOCC1)C1CC2CCC1CC2 (stereo not given), the “% Inhibition” value is reported as 15% and the Z score is reported as -2.12. For OC[C@@]1(CCc2ccccc2)CCCN(C2CCN(Cc3ccccc3)CC2)C1, the “% Inhibition” value was -13% and the Z score was 1.16. For O=C(c1ccc(-n2ccc(-c3cnccn3)n2)cc1)C1CC1, the “% Inhibition” value was -8% and the Z score was 0.74. In the case of CC(C)NC(=O)[C@@H]1Cc2[nH]cnc2C2(CCN(C(=O)COc3ccccc3)CC2)N1, the “% Inhibition” value is reported as -6% and the Z score is reported as 0.95. CC[C@@H](C(=O)NCc1ccccc1F)n1nc(C)c2nn(-c3ccccc3)c(C)c2c1=O was tested, and the “% Inhibition” value was 1% and the Z score was -0.18. With O=C(Nc1ccc(Cl)cc1)[C@@H]1CCCN1S(=O)(=O)Cc1ccc(F)cc1 the “% Inhibition” value was 0% and the Z score was 0.06. In the case of COc1cc(NC(=O)c2ccc3c(c2)OCO3)ccc1-n1cnnn1, the “% Inhibition” value is reported as 10% and the Z score is reported as -1.27. Cc1cccc(C(=O)N[C@H]2CCOC3(CC(C(=O)O)C3)C2)c1Cl (stereo not given in full) was tested, and the “% Inhibition” value was -7% and the Z score was 1.39. For CCCn1cnnc1CN(C)Cc1c(Cl)ccc(O)c1Cl, the “% Inhibition” value was -1% and the Z score was 0.15. COCCn1cncc1CN(C)[C@@H](C)c1nc(C)cs1 was tested, and the “% Inhibition” value was 0% and the Z score was -0.02. For N#Cc1cccc(-c2nccc3ccccc23)c1, the “% Inhibition” value was -10% and the Z score was 1.47. For Cc1cc(NC(=O)N[C@@H](C)CO)ccc1N(C)C, the “% Inhibition” value was -4% and the Z score was 0.59. For CN(C)c1cccc(C(=O)Nc2ccc(C3=NNC(=O)CC3)cc2)c1, the “% Inhibition” value was -15% and the Z score was 2.7. With O=C(c1cnn2c1OCCC2)N1CCN(c2cccc(C(F)(F)F)c2)CC1 the “% Inhibition” value was -13% and the Z score was 2.07. In the case of Cc1ccc(-c2nn(C)c(=O)c3c2CCCC3)cc1S(=O)(=O)NC1CCCCCC1, the “% Inhibition” value is reported as -9% and the Z score is reported as 1.41.
